# Assay results as given in the supplement of paper PMC12230231.
# Tested on: SIVsab (simian immunodeficiency virus of sabaeus monkeys), single-cycle GFP reporter, in CRFK cells
# Assay: enrichment among uninfected cells over input (fold); higher = stronger restriction
# Conditions: library: human / rhesus combinations
# Procedure: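 Pools of CRFK cells expressing variants of the TRIM5α v1 loop were challenged with the single-cycle reporter, sorted by GFP and sequenced; mean of two replicates.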
row,Sequence,enrichment
1,"MASGILVNVKEEVTCPICLELLTQPLSLDCGHSFCQACLTANHKKSMLDKGESSCPVCRISYQPENIRPNRHVANIVEKLREVKLSPEGQKVDHCARHGEKLLLFCQEDGKVICWLCERSQEHRGHHTFLTEEVAREYQVKLQAALEMLRQKQQEAEELEADIREEKASWKTQIQYDKTNVLADFEQLRDILDWEESNELQNLEKEEEDILKSLTNSETEMVQQTQSLRELISDLEHRLQGSVMELLQGVDGVIKRTENVTLKKPETFPKNQRRVFRAPDLKGMLEVFRELTDVRRYWVDVTVAPNNISCAVISEDKRQVSSPKPQIIYGARGTLYTFPTFTNFNYCTGILGSQSITSGKHYWEVDVSKKTAWILGVCAGFQPDAMCNIEKNENYQPKYGYWVIGLEEGVKCSAFQDSSFHTPSVPFIVPLSVIICPDRVGVFLDYEACTVSFFNITNHGFLIYKFSHCSFSQPVFPYLNPRKCGVPMTLCSPSS [human TRIM5α, 330-340 = GARGTLYTFPTFT]",0.701 ± 0.99
2,"MASGILVNVKEEVTCPICLELLTQPLSLDCGHSFCQACLTANHKKSMLDKGESSCPVCRISYQPENIRPNRHVANIVEKLREVKLSPEGQKVDHCARHGEKLLLFCQEDGKVICWLCERSQEHRGHHTFLTEEVAREYQVKLQAALEMLRQKQQEAEELEADIREEKASWKTQIQYDKTNVLADFEQLRDILDWEESNELQNLEKEEEDILKSLTNSETEMVQQTQSLRELISDLEHRLQGSVMELLQGVDGVIKRTENVTLKKPETFPKNQRRVFRAPDLKGMLEVFRELTDVRRYWVDVTVAPNNISCAVISEDKRQVSSPKPQIIYQAPGTRYQTLVNFNYCTGILGSQSITSGKHYWEVDVSKKTAWILGVCAGFQPDAMCNIEKNENYQPKYGYWVIGLEEGVKCSAFQDSSFHTPSVPFIVPLSVIICPDRVGVFLDYEACTVSFFNITNHGFLIYKFSHCSFSQPVFPYLNPRKCGVPMTLCSPSS [human TRIM5α, 330-340 = QAPGTRYQTLV]",0.0132 ± 0.0035
3,"MASGILVNVKEEVTCPICLELLTQPLSLDCGHSFCQACLTANHKKSMLDKGESSCPVCRISYQPENIRPNRHVANIVEKLREVKLSPEGQKVDHCARHGEKLLLFCQEDGKVICWLCERSQEHRGHHTFLTEEVAREYQVKLQAALEMLRQKQQEAEELEADIREEKASWKTQIQYDKTNVLADFEQLRDILDWEESNELQNLEKEEEDILKSLTNSETEMVQQTQSLRELISDLEHRLQGSVMELLQGVDGVIKRTENVTLKKPETFPKNQRRVFRAPDLKGMLEVFRELTDVRRYWVDVTVAPNNISCAVISEDKRQVSSPKPQIIYGAPGTRFQSFVNFNYCTGILGSQSITSGKHYWEVDVSKKTAWILGVCAGFQPDAMCNIEKNENYQPKYGYWVIGLEEGVKCSAFQDSSFHTPSVPFIVPLSVIICPDRVGVFLDYEACTVSFFNITNHGFLIYKFSHCSFSQPVFPYLNPRKCGVPMTLCSPSS [human TRIM5α, 330-340 = GAPGTRFQSFV]",0.00789 ± 0.0035
4,"MASGILVNVKEEVTCPICLELLTQPLSLDCGHSFCQACLTANHKKSMLDKGESSCPVCRISYQPENIRPNRHVANIVEKLREVKLSPEGQKVDHCARHGEKLLLFCQEDGKVICWLCERSQEHRGHHTFLTEEVAREYQVKLQAALEMLRQKQQEAEELEADIREEKASWKTQIQYDKTNVLADFEQLRDILDWEESNELQNLEKEEEDILKSLTNSETEMVQQTQSLRELISDLEHRLQGSVMELLQGVDGVIKRTENVTLKKPETFPKNQRRVFRAPDLKGMLEVFRELTDVRRYWVDVTVAPNNISCAVISEDKRQVSSPKPQIIYQARGTLFTFQSLVNFNYCTGILGSQSITSGKHYWEVDVSKKTAWILGVCAGFQPDAMCNIEKNENYQPKYGYWVIGLEEGVKCSAFQDSSFHTPSVPFIVPLSVIICPDRVGVFLDYEACTVSFFNITNHGFLIYKFSHCSFSQPVFPYLNPRKCGVPMTLCSPSS [human TRIM5α, 330-340 = QARGTLFTFQSLV]",0.098 ± 0.022

# Same assay, conditions: library: insertions and deletions
row,Sequence,enrichment
1,"MASGILVNVKEEVTCPICLELLTQPLSLDCGHSFCQACLTANHKKSMLDKGESSCPVCRISYQPENIRPNRHVANIVEKLREVKLSPEGQKVDHCARHGEKLLLFCQEDGKVICWLCERSQEHRGHHTFLTEEVAREYQVKLQAALEMLRQKQQEAEELEADIREEKASWKTQIQYDKTNVLADFEQLRDILDWEESNELQNLEKEEEDILKSLTNSETEMVQQTQSLRELISDLEHRLQGSVMELLQGVDGVIKRTENVTLKKPETFPKNQRRVFRAPDLKGMLEVFRELTDVRRYWVDVTVAPNNISCAVISEDKRQVSSPKPQIIYGARGTRYQTFVNQTFVNFNYCTGILGSQSITSGKHYWEVDVSKKTAWILGVCAGFQPDAMCNIEKNENYQPKYGYWVIGLEEGVKCSAFQDSSFHTPSVPFIVPLSVIICPDRVGVFLDYEACTVSFFNITNHGFLIYKFSHCSFSQPVFPYLNPRKCGVPMTLCSPSS [human TRIM5α, 5-codon duplication at 337]",0.4 ± 0.011
2,"MASGILVNVKEEVTCPICLELLTQPLSLDCGHSFCQACLTANHKKSMLDKGESSCPVCRISYQPENIRPNRHVANIVEKLREVKLSPEGQKVDHCARHGEKLLLFCQEDGKVICWLCERSQEHRGHHTFLTEEVAREYQVKLQAALEMLRQKQQEAEELEADIREEKASWKTQIQYDKTNVLADFEQLRDILDWEESNELQNLEKEEEDILKSLTNSETEMVQQTQSLRELISDLEHRLQGSVMELLQGVDGVIKRTENVTLKKPETFPKNQRRVFRAPDLKGMLEVFRELTDVRRYWVDVTVAPNNISCAVISEDKRQVSSPKPQIIYGARGTRYQTFVNFNYFVNFNYCTGILGSQSITSGKHYWEVDVSKKTAWILGVCAGFQPDAMCNIEKNENYQPKYGYWVIGLEEGVKCSAFQDSSFHTPSVPFIVPLSVIICPDRVGVFLDYEACTVSFFNITNHGFLIYKFSHCSFSQPVFPYLNPRKCGVPMTLCSPSS [human TRIM5α, 6-codon duplication at 339]",1.17 ± 0.23
3,"MASGILVNVKEEVTCPICLELLTQPLSLDCGHSFCQACLTANHKKSMLDKGESSCPVCRISYQPENIRPNRHVANIVEKLREVKLSPEGQKVDHCARHGEKLLLFCQEDGKVICWLCERSQEHRGHHTFLTEEVAREYQVKLQAALEMLRQKQQEAEELEADIREEKASWKTQIQYDKTNVLADFEQLRDILDWEESNELQNLEKEEEDILKSLTNSETEMVQQTQSLRELISDLEHRLQGSVMELLQGVDGVIKRTENVTLKKPETFPKNQRRVFRAPDLKGMLEVFRELTDVRRYWVDVTVAPNNISCAVISEDKRQVSSPKPQIIYARGTRYQTFVNFNYCTGILGSQSITSGKHYWEVDVSKKTAWILGVCAGFQPDAMCNIEKNENYQPKYGYWVIGLEEGVKCSAFQDSSFHTPSVPFIVPLSVIICPDRVGVFLDYEACTVSFFNITNHGFLIYKFSHCSFSQPVFPYLNPRKCGVPMTLCSPSS [human TRIM5α, 1-codon deletion at 330]",1.23 ± 1.1
4,"MASGILVNVKEEVTCPICLELLTQPLSLDCGHSFCQACLTANHKKSMLDKGESSCPVCRISYQPENIRPNRHVANIVEKLREVKLSPEGQKVDHCARHGEKLLLFCQEDGKVICWLCERSQEHRGHHTFLTEEVAREYQVKLQAALEMLRQKQQEAEELEADIREEKASWKTQIQYDKTNVLADFEQLRDILDWEESNELQNLEKEEEDILKSLTNSETEMVQQTQSLRELISDLEHRLQGSVMELLQGVDGVIKRTENVTLKKPETFPKNQRRVFRAPDLKGMLEVFRELTDVRRYWVDVTVAPNNISCAVISEDKRQVSSPKPQIIYGARGTRYQTFVNFNYILGSQSITSGKHYWEVDVSKKTAWILGVCAGFQPDAMCNIEKNENYQPKYGYWVIGLEEGVKCSAFQDSSFHTPSVPFIVPLSVIICPDRVGVFLDYEACTVSFFNITNHGFLIYKFSHCSFSQPVFPYLNPRKCGVPMTLCSPSS [human TRIM5α, 3-codon deletion at 345]",0.86 ± 0.89
5,"MASGILVNVKEEVTCPICLELLTQPLSLDCGHSFCQACLTANHKKSMLDKGESSCPVCRISYQPENIRPNRHVANIVEKLREVKLSPEGQKVDHCARHGEKLLLFCQEDGKVICWLCERSQEHRGHHTFLTEEVAREYQVKLQAALEMLRQKQQEAEELEADIREEKASWKTQIQYDKTNVLADFEQLRDILDWEESNELQNLEKEEEDILKSLTNSETEMVQQTQSLRELISDLEHRLQGSVMELLQGVDGVIKRTENVTLKKPETFPKNQRRVFRAPDLKGMLEVFRELTDVRRYWVDVTVAPNNISCAVISEDKRQVSSPKPQIIYGARGTRYQRYQTFVNFNYCTGILGSQSITSGKHYWEVDVSKKTAWILGVCAGFQPDAMCNIEKNENYQPKYGYWVIGLEEGVKCSAFQDSSFHTPSVPFIVPLSVIICPDRVGVFLDYEACTVSFFNITNHGFLIYKFSHCSFSQPVFPYLNPRKCGVPMTLCSPSS [human TRIM5α, 3-codon duplication at 335]",0.726 ± 0.059
6,"MASGILVNVKEEVTCPICLELLTQPLSLDCGHSFCQACLTANHKKSMLDKGESSCPVCRISYQPENIRPNRHVANIVEKLREVKLSPEGQKVDHCARHGEKLLLFCQEDGKVICWLCERSQEHRGHHTFLTEEVAREYQVKLQAALEMLRQKQQEAEELEADIREEKASWKTQIQYDKTNVLADFEQLRDILDWEESNELQNLEKEEEDILKSLTNSETEMVQQTQSLRELISDLEHRLQGSVMELLQGVDGVIKRTENVTLKKPETFPKNQRRVFRAPDLKGMLEVFRELTDVRRYWVDVTVAPNNISCAVISEDKRQVSSPKPQIIYGARNFNYCTGILGSQSITSGKHYWEVDVSKKTAWILGVCAGFQPDAMCNIEKNENYQPKYGYWVIGLEEGVKCSAFQDSSFHTPSVPFIVPLSVIICPDRVGVFLDYEACTVSFFNITNHGFLIYKFSHCSFSQPVFPYLNPRKCGVPMTLCSPSS [human TRIM5α, 8-codon deletion at 333]",2.08 ± 1.3
7,"MASGILVNVKEEVTCPICLELLTQPLSLDCGHSFCQACLTANHKKSMLDKGESSCPVCRISYQPENIRPNRHVANIVEKLREVKLSPEGQKVDHCARHGEKLLLFCQEDGKVICWLCERSQEHRGHHTFLTEEVAREYQVKLQAALEMLRQKQQEAEELEADIREEKASWKTQIQYDKTNVLADFEQLRDILDWEESNELQNLEKEEEDILKSLTNSETEMVQQTQSLRELISDLEHRLQGSVMELLQGVDGVIKRTENVTLKKPETFPKNQRRVFRAPDLKGMLEVFRELTDVRRYWVDVTVAPNNISCAVISEDKRQVSSPKPQIIYGARIYGARGTRYQTFVNFNYCTGILGSQSITSGKHYWEVDVSKKTAWILGVCAGFQPDAMCNIEKNENYQPKYGYWVIGLEEGVKCSAFQDSSFHTPSVPFIVPLSVIICPDRVGVFLDYEACTVSFFNITNHGFLIYKFSHCSFSQPVFPYLNPRKCGVPMTLCSPSS [human TRIM5α, 5-codon duplication at 328]",0.565 ± 0.047
8,"MASGILVNVKEEVTCPICLELLTQPLSLDCGHSFCQACLTANHKKSMLDKGESSCPVCRISYQPENIRPNRHVANIVEKLREVKLSPEGQKVDHCARHGEKLLLFCQEDGKVICWLCERSQEHRGHHTFLTEEVAREYQVKLQAALEMLRQKQQEAEELEADIREEKASWKTQIQYDKTNVLADFEQLRDILDWEESNELQNLEKEEEDILKSLTNSETEMVQQTQSLRELISDLEHRLQGSVMELLQGVDGVIKRTENVTLKKPETFPKNQRRVFRAPDLKGMLEVFRELTDVRRYWVDVTVAPNNISCAVISEDKRQVSSPKPQIIYGARGTRYQTFVNFNYNFNYCTGILGSQSITSGKHYWEVDVSKKTAWILGVCAGFQPDAMCNIEKNENYQPKYGYWVIGLEEGVKCSAFQDSSFHTPSVPFIVPLSVIICPDRVGVFLDYEACTVSFFNITNHGFLIYKFSHCSFSQPVFPYLNPRKCGVPMTLCSPSS [human TRIM5α, 4-codon duplication at 341]",0.662 ± 0.45

# ± gives the standard deviation of the averaged measurements. Restriction of a single-cycle SIVsab GFP reporter by TRIM5α v1-loop variants in CRFK cells. Human variants: read share among cells still uninfected after two challenges over input, higher = gained restriction. Rhesus variants: share among infected cells over input, higher = lost restriction. Reporter dose not given per row. No active / inactive call per row; the paper calls a change when both replicates lie above its controls (mean + 2 SD of stop or wild-type variants, or the top frameshift score). Residues outside the varied loop are taken from Swiss-Prot. The paper reads the human single-substitution scores as noise; they and the rhesus combinations repeat poorly (rank correlation 0.3 to 0.4), indel scores repeat only for the top variants, rhesus substitutions well (0.9).
